Laboratory results as given in PubChem BioAssay AID894 (National Center for Advancing Translational Sciences (NCATS), 2007).
Screen size: about 150,000 compounds; about 6,500 (4.3%) were called active. This list was built around the results that the source calls inconclusive (neither active nor inactive); the mix of calls is not that of the screen. Calls come from the whole dose curve; as a rule, active = well fitted inhibition curve with a large enough effect (not every such curve was filed as active); inconclusive = small, poorly fitted or top-dose-only effect, or another doubt; inactive = no such curve, though single readings can be large or run the other way. No potency is given beside an inconclusive call; the fits are too rough.

Target: 15-hydroxyprostaglandin dehydrogenase [NAD(+)] (Homo sapiens) (UniProt P15428)
Chain of UniProt P15428 (P15428 whole entry, looked up): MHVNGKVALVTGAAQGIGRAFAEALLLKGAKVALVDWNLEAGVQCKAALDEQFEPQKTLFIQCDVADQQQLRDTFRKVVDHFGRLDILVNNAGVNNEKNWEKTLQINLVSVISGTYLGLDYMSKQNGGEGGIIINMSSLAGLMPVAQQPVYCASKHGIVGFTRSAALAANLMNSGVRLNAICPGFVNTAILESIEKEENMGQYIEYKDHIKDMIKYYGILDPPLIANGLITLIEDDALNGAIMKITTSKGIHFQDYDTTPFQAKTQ
Test: qHTS Assay for Inhibitors of HPGD (15-Hydroxyprostaglandin Dehydrogenase)
Settings: purified HPGD, NADH fluorescence kinetic, PGE2 substrate; activity change, negative = inhibition: stronger effect = lower value
Outline: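 NADH formation kinetics: reaction with 30 uM PGE2 and 1 mM NAD+ (final), 20 nM enzyme, Tris-HCl pH 8 with Tween 20, after 15 min compound preincubation at room temperature. Fluorescence change, last versus first of five reads.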
% is set by controls: 0 for no effect and ±100 for the full control effect; potency is the fitted concentration of half-maximal effect; tags give direction and shape of the fitted curve.

SMILES | Potency | activity change, negative = inhibition
Cc1ccc(S(=O)(=O)c2cc3c(=O)n4ccccc4nc3n(C)c2=N)cc1 | inconclusive [inhibitor, partial curve] | –
Cc1ccc(N2C(=O)C3N=NN(CC(=O)N4N=C(c5cccc6ccccc56)CC4c4ccccc4)C3C2=O)cc1 (configuration not stated) | inconclusive [inhibitor, partial curve] | –
Cn1c(Cn2nnc3ccccc32)nnc1SCC(=O)N1c2ccccc2CCc2ccccc21 | – | inactive: -0.769%
Cc1cccc(Cn2ncc(Cl)c(Cl)c2=O)c1 | – | inactive: -10.6%
CCOC(=O)c1cc2cc(OC)ccc2[nH]1 | inconclusive [inhibitor, partial curve] | –
Cc1ccc(N2NC(=O)/C(=C\c3cc4c(cc3[N+](=O)[O-])OCO4)C2=O)cc1C | active: 3.98 µM | –
COc1ccccc1CN(CC(=O)NCC1CCCO1)C(=O)CNS(=O)(=O)c1ccc(C)cc1 (configuration not stated) | – | inactive: 0.941%
Cc1cccc(S(=O)(=O)Nc2nc3ccccc3nc2Nc2ccc3c(c2)OCO3)c1 | inconclusive [inhibitor, partial curve] | –
C#CCn1cc(/C=N/Nc2nc3ccccc3[nH]2)c2ccccc21 | inconclusive [inhibitor, single point] | –
COC(=O)C(NC(=O)COc1ccccc1)(Nc1nc2c(s1)CCCC2)C(F)(F)F (configuration not stated) | active: 35.5 µM | –
Fc1ccccc1-c1nc(-c2ccccc2)oc1NC1CCCCC1 | – | inactive: -9.25%
CC(C)(C)c1ccc(C(=O)NNC(=O)Cc2cccc3ccccc23)cc1 | inconclusive [inhibitor, partial curve] | –
CC(Cc1ccccc1)C(=O)NCC1CC1 (configuration not stated) | – | inactive: -6.13%
Cc1ccc(S(=O)(=O)c2c(N)n(NC(=O)c3ccccc3C)c3nc4ccccc4nc23)cc1 | inconclusive [inhibitor, partial curve] | –
CCN1C(=O)/C(=C2/Sc3ccccc3N2CCCS(=O)(=O)O)SC1=S | active: 20 µM | –
CCOC(=O)c1c(C)[nH]c2ccc3c(c12)CN1CCc2cc(OC)ccc2[C@@H]1O3 | – | inactive: -9.92%
Cc1cc(C)nc(SCC(=O)N/N=C\C(Br)=C\c2ccccc2)n1 | inconclusive [inhibitor, partial curve] | –
COc1ccc2cc(CN(CC3COCCO3)S(=O)(=O)c3ccccc3)c(=O)[nH]c2c1 (configuration not stated) | – | inactive: 39.9%
O=C(c1ccccc1)n1ccc(-c2cnc(-c3ccccc3)s2)n1 | inconclusive [inhibitor, single point] | –
Cc1ccnc(NC(=O)c2cccc(NS(=O)(=O)c3ccccc3C)c2)c1 | – | inactive: -4.58%
COc1ccccc1[C@@H]1C(c2ccccc2)=NN(c2ccccc2)[C@H]1C(=O)N1CCOC1=O | inconclusive [inhibitor, partial curve] | –
Cn1c(=O)c2[nH]c(/N=N\N3CCN(CCO)CC3)nc2n(C)c1=O | – | inactive: -6.6%
Cc1cccc(CSc2nc3c(c(=O)[nH]2)CCCC3)c1 | active: 7.94 µM | –
CC1=CC(C)(C)Nc2ccc(OC(=O)CCN3C(=O)c4ccccc4C3=O)cc21 | – | inactive: -6.27%

SMILES | Potency | activity change, negative = inhibition
CC(C)c1ccc2c(c1)C(=O)NC(C)(C)C2 | inconclusive [inhibitor, single point] | –
CCCc1cc(=O)[nH]c(SCc2cc(=O)oc3c(C)c(C)ccc23)n1 | active: 3.55 µM | –
COCCn1c(CCC(=O)O)nc2c1c(=O)[nH]c(=O)n2CC(C)C | – | inactive: -7.26%
CCCCCOc1ccc(CN2CCOCC2)cc1Cl | inconclusive [inhibitor, single point] | –
COc1ccccc1C(=O)NC(=S)N1CCCc2ccccc21 | active: 8.91 µM | –
C/C(=N/Nc1ccc(C(=O)O)cc1)c1ccc(O)c(O)c1O | active: 25.1 µM | –
O=C(Nc1ccc(F)cc1)c1sccc1SCc1cccc(C(F)(F)F)c1 | inconclusive [inhibitor, partial curve] | –
Cc1onc(-c2ccccc2Cl)c1C(=O)Nc1ccc(-c2nnc3n2CCCCC3)cc1 | active: 15.8 µM | –
Cc1cc(C)c(NC(=O)CSc2nc3ccc(NC(=O)CSc4nnnn4-c4ccccc4)cc3s2)c(C)c1 | – | inactive: -17.5%
COc1ccc(C(C)(C)C)cc1NC(=O)c1c(C)noc1C | – | inactive: -10.1%
COc1cc(/C=N/O)cc(Br)c1OCC(=O)NCc1ccccc1 | active: 14.1 µM | –
Cc1ccccc1S(=O)(=O)Nc1nc2ccccc2nc1NCCO | inconclusive [inhibitor, partial curve, poor fit] | –
CC(C)(C)c1ccc(C(=O)N/C(N)=N/c2nc3ccccc3o2)cc1 | inconclusive [inhibitor, single point] | –
CC1CCCC(NC(=O)CSc2nnc(N)s2)C1C (configuration not stated) | active: 28.2 µM | –
O=C(O)c1cc(C(=O)C(=O)c2cc(C(=O)O)c(O)c3ccccc23)c2ccccc2c1O | active: 4.47 µM | –
COc1ccc(CC(=O)OCc2cc3cccc(C)c3[nH]c2=O)cc1 | inconclusive [inhibitor, partial curve] | –
COC(=O)C1=C(C(=O)OC)[C@@H]2N(Cc3ccccc3)c3ccccc3[C@@]23C[C@@H](C(=O)OC)N(S(=O)(=O)c2ccc(C#N)cc2)C3=N1 | – | inactive: -9.06%
N#C/C(=C\Nc1ccccn1)C(=O)c1ccco1 | – | inactive: -21%
CCCN1C(=O)/C(=N\OCC(=O)NCC(F)(F)F)c2ccccc21 | – | inactive: -16.9%
COCCN(CCOC)C(=O)c1cc2c(=O)n3ccccc3nc2s1 | inconclusive [inhibitor, partial curve] | –
CCS(=O)(=O)N1CCN(C(=O)c2ccco2)CC1 | – | inactive: -3.81%
COc1ccc(OC)c(C(=O)CSc2nnc(Cc3cccs3)n2CCc2ccccc2)c1 | inconclusive [inhibitor, partial curve] | –
Cc1cc(NS(=O)(=O)c2ccc(NC(=O)c3cnc4scc(C)n4c3=O)cc2)nc(C)n1 | inconclusive [inhibitor, partial curve] | –
CCOC(=O)c1ccc(Nc2cc(C)nc(C)c2C(=O)OCC)cc1 | – | inactive: -4.91%

SMILES | Potency | activity change, negative = inhibition
C[C@@]1(C(=O)O)NCCc2cc(O)c(O)cc21 | inconclusive [inhibitor, partial curve] | –
COc1ccc2[nH]c(C)c(CCNc3ccc(C(F)(F)F)cc3[N+](=O)[O-])c2c1 | inconclusive [inhibitor, single point] | –
O=[N+]([O-])c1cc(S(=O)(=O)Nc2cccc(C(F)(F)F)c2)ccc1-n1nnc2ccccc21 | active: 31.6 µM | –
COCCN(CCOC)c1nc(C)nc2c1nc(-c1ccccc1)n2CCN1CCCC1 | inconclusive [inhibitor, partial curve] | –
O=C(NC1CCCCCC1)c1ccc(N2CCCC2=O)cc1 | inconclusive [inhibitor, partial curve] | –
O=C(COC(=O)c1cc(-c2cccc3ccccc23)nc2ccccc12)NC1CCS(=O)(=O)C1 (configuration not stated) | inconclusive [inhibitor, partial curve] | –
O=C(Nc1ccc2nc(-c3ccc4nc[nH]c4c3)[nH]c2c1)c1cccs1 | inconclusive [inhibitor, single point] | –
COc1cccc(/C=C/C(=O)OCC(=O)NCc2ccco2)c1 | inconclusive [inhibitor, partial curve] | –
CN(C)c1ccc(/C=C/c2ccc3ccccc3[n+]2C)cc1 | – | inactive: -1.5%
Cc1cccc(C(=O)N=c2c(C#N)cc3c(=O)n4cccc(C)c4nc3n2Cc2ccco2)c1 | inconclusive [inhibitor, partial curve] | –
COc1cc(O)c(C(=O)/C=C/c2ccc(OC)c(O)c2)c(OC)c1 | active: 7.94 µM | –
COc1ccc(NC(=S)NCc2ccc3c(c2)cc(C)n3C)cc1 | inconclusive [inhibitor, full curve, poor fit] | –
Nc1ccccc1C(=O)/C=C/c1ccc2c(c1)OCO2 | inconclusive [inhibitor, partial curve, poor fit] | –
O=C(Nn1c(C2CCCCC2)nc2ccccc2c1=O)c1ccc([N+](=O)[O-])cc1Cl | – | inactive: -4.06%
COCCn1c(-c2ccccc2F)n[nH]c1=S | – | inactive: -23.2%
Cc1ccc(OCC(=O)Nc2ccc(O)c(C(=O)O)c2)cc1C | inconclusive [inhibitor, partial curve] | –
Cn1c(=O)c2c(nc(SCc3cccnc3)n2Cc2ccc(F)cc2)n(C)c1=O | active: 39.8 µM | –
CN=c1nc(-c2ccccc2)n(-c2ccccc2)s1 | – | inactive: -26.1%
Cn1cccc1C(=O)OCC(=O)c1cc2ccccc2o1 | active: 28.2 µM | –
Nc1nc(SCC(=O)Nc2ccc(Oc3ccccc3)cc2)n[nH]1 | inconclusive [inhibitor, partial curve] | –
CC1CCc2nc(NC(=O)CN3CCN(c4ccccc4)CC3)sc2C1 (configuration not stated) | – | inactive: -0.932%
Cc1nn(-c2ccc(F)cc2)c2sc(C(=O)OCC(=O)N3CCC(C)CC3)cc12 | inconclusive [inhibitor, partial curve] | –
COc1ccc(-c2nc(C#N)c(NCCc3ccccc3)o2)cc1OC | inconclusive [inhibitor, partial curve] | –
O=c1ccc(/C=C/c2ccccc2)nn1Cc1ccccc1 | inconclusive [inhibitor, partial curve] | –
